Z-score data for 70 compounds are collected here from PubChem BioAssay AID488969 (Vanderbilt High Throughput Screening Facility, 2010).

Each structure is given as a SMILES string. In all, about 110,000 compounds were measured (“z-score”: median about -0.1, highest 2% from about 2 on). The list shows a part of the results. Activity calls are given as the source filed them.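 How the source made its calls: active means z-score in the third read window above 3 or below -3; inactive means the rest.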

The target in the test is Metabotropic glutamate receptor 8 (Rattus norvegicus) (UniProt P70579). Briefly: rat mGluR8 modulators via GIRK flux, primary screen, cell-based, thallium flux, HTS (AID 488969). To be noted: HEK293 rat mGluR8, GIRK (G protein-gated inwardly rectifying potassium channel) thallium flux, FluoZin2; at 10 µM; stronger effect = higher value; submaximal glutamate (EC20) added with thallium.
Chain of UniProt P70579 (P70579 whole entry, looked up): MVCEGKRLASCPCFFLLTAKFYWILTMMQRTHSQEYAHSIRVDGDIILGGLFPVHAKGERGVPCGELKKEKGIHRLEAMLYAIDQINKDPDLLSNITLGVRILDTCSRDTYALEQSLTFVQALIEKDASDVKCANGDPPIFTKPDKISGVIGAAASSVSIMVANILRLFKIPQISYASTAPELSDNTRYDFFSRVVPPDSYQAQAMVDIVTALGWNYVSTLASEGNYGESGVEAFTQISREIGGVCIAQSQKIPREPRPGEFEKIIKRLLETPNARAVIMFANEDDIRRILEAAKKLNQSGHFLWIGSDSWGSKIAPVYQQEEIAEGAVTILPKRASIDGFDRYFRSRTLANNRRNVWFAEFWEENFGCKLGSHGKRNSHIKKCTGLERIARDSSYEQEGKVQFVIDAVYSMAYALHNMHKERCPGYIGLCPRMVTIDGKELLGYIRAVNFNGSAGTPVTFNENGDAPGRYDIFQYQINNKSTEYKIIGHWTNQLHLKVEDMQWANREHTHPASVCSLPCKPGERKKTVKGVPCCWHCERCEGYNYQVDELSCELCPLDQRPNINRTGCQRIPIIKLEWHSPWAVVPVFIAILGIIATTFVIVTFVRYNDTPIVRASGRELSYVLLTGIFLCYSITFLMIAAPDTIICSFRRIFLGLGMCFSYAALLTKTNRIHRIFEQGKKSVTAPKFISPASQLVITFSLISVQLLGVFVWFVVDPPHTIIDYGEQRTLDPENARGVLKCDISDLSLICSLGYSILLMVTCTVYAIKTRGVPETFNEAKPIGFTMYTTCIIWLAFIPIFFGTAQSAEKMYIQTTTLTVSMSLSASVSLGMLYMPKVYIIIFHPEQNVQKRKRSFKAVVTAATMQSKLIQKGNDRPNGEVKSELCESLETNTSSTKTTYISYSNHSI
The compound `O=C(Nc1ccc(F)cc1)c1cccnc1N1CCCCC1` showed a z-score of 0.149.
In turn, `O=C(NCc1ccccc1Cl)C1CCCN(S(=O)(=O)c2cccc3nsnc23)C1` (stereo not given) came in with a z-score of 1.16.
Then `CCOC(=O)c1c(NC(=O)CN2C(=O)NC3(CCC(CC)CC3)C2=O)sc(C)c1-c1ccc(C)cc1` (stereo not given), with -0.196; and `Cc1ccc(-c2csc3ncnc(SCC(=O)NCc4ccc5c(c4)OCO5)c23)cc1`, with -0.257; and `COc1ccc2nc(C)cc(SCC(=O)N/N=C/c3cccc4ccccc34)c2c1`, with -0.178.
For `CC(C)c1ccc(C(=O)NCCCN2CCN(CCCNC(=O)c3ccc(C(C)C)cc3)CC2)cc1` the value was -0.135; for `COc1ccc(CNC(=O)C2CCCN2S(=O)(=O)c2ccc(Cl)cc2)cc1` (stereo not given), -1.04; for `CCCCCOc1ccc(C(=O)NCC2(c3ccccc3)CCOCC2)cc1`, -0.243.
Then `OC(CN1CCN(c2ccccc2)CC1)c1ccc2c(c1)CCN2` (stereo not given), with -0.587.
Regarding `COc1cc(CNCCO)ccc1OC1CCCC1`, the z-score is 0.566.
For `CC(=O)Nc1ccccc1C(=O)C(=O)Nc1ccc(C)c(C)c1` the value was 0.146; for `CC(NS(=O)(=O)c1ccccc1)C(=O)Nc1ccc(S(N)(=O)=O)cc1` (stereo not given), 0.246.
Then `Cc1nc2cc(-c3ccccc3)nn2c(C)c1CCC(=O)NCc1ccco1`, with 1.6; and `COc1cccc(NC(=O)CN2CCN(c3nc(-c4cccc(OC)c4)cs3)CC2)c1`, with 0.209; and `COc1ccc(C(=O)COC(=O)C(C(C)C)N2C(=O)C3C4C=CC(C4)C3C2=O)cc1` (stereo not given), with -0.269.
For `O=C(NC(=S)Nc1ccc(Br)cn1)c1cncc(Br)c1` the value was 0.371; for `Cc1cccc(/C=N/NC(=O)Cn2nccc2C)n1`, -0.0556; for `CC1(C)CC(=O)C2=C(C1)N(c1ccccc1)C(=O)CC2c1ccsc1` (stereo not given), -0.712.
The compound `CCOC(=O)c1c(C)oc(/N=C/c2ccccc2O)c1C#N` came in with a z-score of -0.204.
Then `Cn1c2c(c(=O)n(C)c1=O)C(NC(=O)C(C)(C)C)(C(F)(F)F)C(=O)N2` (stereo not given), with 0.115; and `CC(C)(C)c1cc(C(=O)N/N=C/c2ccc(F)cc2)n(-c2ccccc2)n1`, with -1.22; and `Cc1ccccc1Cn1c(=N)n(CC(O)c2ccco2)c2ccccc21` (stereo not given), with active: 3.34.
Regarding `COc1cc(S(=O)(=O)N2CCN(c3ccccc3)CC2)ccc1Cl`, the z-score is -0.282.
Then `O=C(CC1NCCNC1=O)Nc1ccc(Oc2ccccc2)cc1` (stereo not given), with 0.267; and `CCC(=O)NC(Nc1cc(C)ccn1)(C(F)(F)F)C(F)(F)F`, with -0.164.
For `COc1cccc(NC(=O)COC(=O)c2cccnc2)c1` the value was 0.159.
`O=C(NCCCc1ccccc1)c1ccccc1O` came in with a z-score of -0.211.
Then `O=C(Nc1ccc(F)cc1)Nc1nnc(-c2ccncc2)s1`, with -0.449.
Then `CC(C)CC(C(=O)NCC1CCCO1)N(C(=O)Cn1nnc(-c2ccc(F)cc2)n1)c1ccccc1F` (stereo not given), with -0.107; and `CCN1CCN(S(=O)(=O)c2ccc(OC)c(Br)c2)CC1`, with 0.352; and `Cc1ccc(SCCC(=O)NC(C)C)cc1`, with -0.0923.
Then `O=C1CN(C(=O)COC(=O)/C=C/c2ccc(OC(F)F)cc2)c2ccccc2N1`, with 0.00817; and `CNC(=S)NNC(=O)c1sccc1OCc1cccc(C(F)(F)F)c1`, with -0.766; and `COc1ccc(-c2nnc(SCc3nnc(-c4ccccc4)o3)n2-c2ccccc2)cc1`, with -0.379.
In the case of `Cc1nnsc1NC(=O)OCc1ccc(C(C)(C)C)cc1`, the z-score was -0.226.
For `CC(c1ccco1)N(C(=O)c1cccs1)c1ccccn1` (stereo not given) the value was -0.72; for `Cc1ccc(S(=O)(=O)/N=C(\CSC(N)=O)Nc2ccccc2)cc1`, -0.288.
Then `O=C(NNC(=O)c1cccs1)c1ccc(Cl)c(Cl)c1`, with -0.19; and `CC1CN(C2CCN(S(=O)(=O)c3ccccc3)CC2)CC(C)O1` (stereo not given), with -0.675.
In turn, `CCN(CCNC(=O)C1CCCN(S(=O)(=O)CC)C1)c1ccccc1` (stereo not given) registered a z-score of 0.155.
For `COc1ccc(NC(=O)/C(Cl)=C(/Cl)S(=O)Cc2ccc(C)cc2)cn1` (stereo not given) the value was -0.487; for `Cc1ccc(-c2csc3ncn(-n4c(C)ccc4C)c(=O)c23)o1`, 0.169.
Then `O=C(Nc1cc(C(F)(F)F)ccc1N1CCOCC1)c1ccccc1F`, with -0.126.
`COc1cccc(N2CCN(Cc3nc(N)nc(N4CCCc5ccccc54)n3)CC2)c1`: the z-score was -0.422.
Then `O=C1CCCCC1C(Nc1ccc(Br)cc1)c1ccccc1` (stereo not given), with 0.171; and `Cc1ccc(N2CCN(C(=O)CCc3nc4ccccc4[nH]3)CC2)c(C)c1`, with 0.378.
For `C=CCSc1nc(-c2ccccc2)c(C#N)c(=O)[nH]1` the value was -1.23; for `CCOC(=O)c1c(C)[nH]c(C(=O)Cn2nnc(-c3ccccc3Cl)n2)c1C`, -0.366.
For `CCOc1ccc(C(=O)Nc2cc(=O)n(C)c(=O)n2C)cc1` the value was -0.395; for `COc1ccc(C(=O)N2CCN(c3c(C)cccc3C)CC2)cc1OC`, -0.427.
Turning to `CCn1cc(C(=O)N2CCN(C(=O)c3ccco3)CC2)c2cc(OC)c(OC)cc2c1=O`, the z-score was found to be 0.191.
`CCOc1cc(-c2conc2N)cc(OCC)c1OCC` displayed a z-score of 0.888.
Then `O=C(COc1ccc(Br)cc1F)NC1CCN(Cc2ccccc2)CC1`, with -0.42; and `O=c1oc2c3c(nn2c2ccccc12)CCCC3`, with -0.15.
For `C=CCNC(=O)c1ccc(-c2ccc([N+](=O)[O-])cc2)o1` the value was -0.231; for `COc1ccc(C(=O)Oc2coc(CSc3nnc(NC(=O)c4cccs4)s3)cc2=O)cc1`, 0.401.
`O=C(C1COc2ccccc2O1)N1CCn2c(nc3ccccc32)C1` (stereo not given) came in with a z-score of -0.746.
For `CCC(C)NC(=O)CS(=O)Cc1nc(-c2cccc(OC)c2)oc1C` (stereo not given) the value was 0.0139; for `COc1ccc(OC(C)C(=O)Nc2cccc(OC)c2)cc1` (stereo not given), -0.0173.
Then `CCOC(=O)N/N=C/c1c(F)c(F)c(F)c(F)c1F`, with 0.154; and `CCOC(=O)c1c(-c2ccc(OC)cc2)csc1/N=C/N(C)C`, with -0.193; and `CN(Cc1ccccc1)C(=O)COC(=O)c1cc(-c2ccc(Cl)s2)nc2ccccc12`, with 0.667.
For `CC(C)N(C(=O)CSc1nnc(Cn2nnc3ccccc32)n1C)C(C)C` the value was -0.367.
`COCCn1c(C)cc(C2=NNC(=Nc3ccc(Cl)cc3Cl)SC2)c1C` gave a z-score of -0.351.
For `CCNC(=O)NC(=O)C(C)SCc1ccccc1C` (stereo not given) the value was 0.101; for `Cc1noc(C)c1C(=O)Nc1ccccn1`, -0.19; for `CCNC(=O)COc1ccc(CC)cc1`, -0.912.
As for `CC(NC(=O)c1cc(-c2ccccc2)on1)c1ccccc1` (stereo not given), the z-score is -0.332.
Then `CCCCCCOc1ccc(/C=c2\s/c(=C(/C#N)C(=O)NCc3ccco3)n(-c3ccccc3)c2=O)cc1`, with -0.272.
Then `CC(=O)C1C(=O)CC(C)(O)C(C(C)=O)C1c1ccc(N(C)C)cc1` (stereo not given), with 0.621.
